From patent publication US6017719A, “Positive and positive/negative cell selection mediated by peptide release” (Nexell Therapeutics, Inc., priority 1995, dated 2000)
Entries after “also recorded” stand apart in the source; their conditions may differ. At least one peptide structure holds a part that was inferred or is arguable (an end, a ring closure or a residue). Some compounds share one wording; it may come from a single statement. Ends that are not written are not given here.

Key:
anti-CD34 antibody, 9069 = assay: KG1a cell FACS assay: release by peptides of 9069 antibody prebound to cells; assay type: binding, mouse; settings: for Competition %: Table 11, displacement of prebound 9069 from KG1a cells; for displacement of prebound 9069 antibody from KG1a cells (in words): cell-based KG1a FACS assay
Method: These experiments were performed following a similar procedure to the binding experiments except that the anti-CD34 antibody, 9069, was incubated with KG1a cells first, followed by addition of peptide. The experimental outline is schematically shown below:
KG1a Cell Assay to Test for Release by Peptides of 9069 Antibody Bound to Cells.
Anti-CD34 antibody, 9069 (0.i microgram) was incubated with KG1a cells (10^6) for 30 minutes at room temperature (about 22° C.). Molar excesses of 10^5 to 10^6 times the amount of peptide to antibody were tested for the ability to displace the prebound antibody. Peptides were incubated with the antibody-cell complexes for 30 minutes at room temperature (approximately 22° C.). Remaining bound antibody was detected using the FITC-goat anti-mouse IgG reagent described in Example 3.
Analysis of the variant peptide, 9069Q2, was done in parallel with the 9069N peptide. This analysis provides quality control information on reagents including the antibody, 9069, and the cells, KG1a. FACScan assays included a negative control of KG1a cells alone and positive control samples of KG1a cells with the 9069 antibody bound and detected with a secondary antibody, goat-anti-mouse IgG-FITC.

CD34 cells = assay: Stem cell selection with 9069 antibody, sheep-anti-mouse beads and releasing agent; assay type: cell-based, human
561 antibody = assay: KG1a or tHL60 cell-based FACS assay: release of prebound 561 antibody; assay type: binding; settings: for release of 561 antibody prebound to KG1a or tHL60 cells (in words): crude peptides, pH not stated
Description: Five peptides representing hexapeptides selected from biopannings were synthesized and tested for their ability to serve as release agents in the KG1a or tHL60 cell-based FACS assay.
The peptides (see Table 27 below) were synthesized by Research Genetics and tested without purification. The 9069 antibody was used as a positive control and released with the 9069N peptide (Ac-Q Q G W F P-K D) (SEQ ID NO:9). This control served to test for the KG1a cells and the goat-anti-mouse FITC secondary detection antibody. Hexapeptide sequences identified for the 561 antibody were tested for their ability to displace prebound 561 antibody.
HPLC-purified peptides 561C and D were tested in the cell-based KG1a FACS assay.
Functional release activity of purified 561D peptide at pH 4 and 6 was tested.
Functional release activity of purified 561C and 561D peptides at pH 4, 5, 6, 7, 8, and 9 was tested.
Functional release activity of crude 561A,B,C,D, M, P, Q, CDR2H, CDR2L, CDR3H, CDR3L, 34B, 34C,34D,34E and 34F peptides adjusted to pH 7 and pH unadjusted (~pH3.8-4.3) was tested.

anti-CD34 antibody 9079 = assay: KG1a cell-based FACS assay: release of prebound 9079 antibody; assay type: binding; settings: for release of prebound 9079 antibody: 10 6 KG1a cells bound with 0.05 ug 9079 antibody
[1] = Table 8, mobilized peripheral blood (1.05% CD34 start), 0.25 mg peptide
[2] = Table 8, mobilized peripheral blood (1.05% CD34 start), 3.0 mg peptide
[3] = crude peptide, pH unadjusted (around pH 3.8-4.3; low pH ~4)
[4] = HPLC-purified peptide adjusted to ~pH 4
[5] = HPLC-purified peptide tested at pH 4-9
[6] = HPLC-purified peptide, as dissolved

ADGAEQGFFPGAKD [9069G', ADGA--EQGFFP--GAKD]
Competition % (anti-CD34 antibody, 9069): 4%

ADGANQGYFPGAKD [9069H', ADGA--NQGYFP--GAKD]
Competition % (anti-CD34 antibody, 9069): 75%

ADGAQQGWFPGAKD [Peptide 9069A, A D G A-Q Q G W F P-G A K D]
displacement of prebound 9069 antibody from KG1a cells (in words) (anti-CD34 antibody, 9069): competitive displacement of the anti-CD34 antibody, 9069
% CD34 CELLS Negative Fraction (CD34 cells; Table 7, mobilized peripheral blood (5.86% CD34 start), 3 mg peptide): 2.1%
% CD34 CELLS Negative Fraction (CD34 cells; Table 7, mobilized peripheral blood (5.86% CD34 start), 6 mg peptide): 2%
% CD34 CELLS Negative Fraction (CD34 cells; [1]): 0.11%
% Yield (CD34 cells; [1]): 28%
% CD34 CELLS Negative Fraction (CD34 cells; Table 8, mobilized peripheral blood (1.05% CD34 start), 0.50 mg peptide): 0.3%
% CD34 CELLS Negative Fraction (CD34 cells; [2]): 0.12%
% Yield (CD34 cells; [2]): 72%
% CD34 CELLS Negative Fraction (CD34 cells; Table 9, bone marrow (3.66% CD34 start), 2.5 mg peptide): 0.2%

ADGATQGICLGAKD [Peptide 9069K, ADGA--TQGICL--GAKD]
Competition % (anti-CD34 antibody, 9069): 76%

ADGATQGTFSGAKD [9069E', ADGA--TQGTFS--GAKD]
Competition % (anti-CD34 antibody, 9069): 91%

Ac-QQGFFPKD [Peptide 9069Q2, Ac-QQGFFP-KD]
displacement of prebound 9069 antibody from KG1a cells (in words) (anti-CD34 antibody, 9069): shown to function as a competitive release reagent; also recorded: able to displace prebound 9069 antibody from KG1a cells

Ac-TQGSFWKD [Peptide 9069O, Ac--TQGSFW--KD]
Competition % (anti-CD34 antibody, 9069): 51%

DLAQSEVRPQKD [Peptide 34E, D--LAQSEVRPQ--KD]
release activity on prebound 561 antibody (561 antibody; crude peptide, pH 7): did not show functional release activity
release activity on prebound 561 antibody (561 antibody; [3]): did not show functional release activity

DQQWNSNPLTK [Peptide 561CDR3L, D--Q Q W N S N P L T--K]
release activity on prebound 561 antibody (561 antibody; crude peptide, pH 7): none of these peptides showed release activity; also recorded: did not show release activity
release activity on prebound 561 antibody (561 antibody; [3]): showed functional release activity; also recorded: showed significant release activity
release activity on prebound 561 antibody (561 antibody; pH 6): did not show release activity

DTKPYTSSSKD [Peptide 34B, D--TKPYTSSS--KD]
release activity on prebound 561 antibody (561 antibody; crude peptide, pH 7): did not show functional release activity
release activity on prebound 561 antibody (561 antibody; [3]): did not show functional release activity

DTSKLAS [Peptide 561CDR2L, D T S K L A S]
release activity on prebound 561 antibody (561 antibody; crude peptide, pH 7): did not show functional release activity
release activity on prebound 561 antibody (561 antibody; [3]): did not show functional release activity

EFKKDRGEGLAR [Peptide 34D, EFKKDRGEGLAR]
release activity on prebound 561 antibody (561 antibody; crude peptide, pH 7): did not show functional release activity
release activity on prebound 561 antibody (561 antibody; [3]): did not show functional release activity

EVKLTQGICLEQNKT [Peptide 9069M, EVKL--TQGICL--EQNKT]
Competition % (anti-CD34 antibody, 9069): 77%

IQEFGVKD [Peptide 9079F, IQEFGV--KD]
release of prebound 9079 antibody (anti-CD34 antibody 9079): at least 50%

KDHQSYSQKT [Peptide 34F, KD--HQSYSQKT]
release activity on prebound 561 antibody (561 antibody; crude peptide, pH 7): did not show functional release activity
release activity on prebound 561 antibody (561 antibody; [3]): did not show functional release activity

KDPANVSLKD [Peptide 561Q, K D--P A N V S L--K D]
release activity on prebound 561 antibody (561 antibody; crude peptide, pH 7): none of these peptides showed release activity; also recorded: did not show release activity
release activity on prebound 561 antibody (561 antibody; [3]): showed functional release activity; also recorded: showed significant release activity
release of 561 antibody prebound to KG1a or tHL60 cells (in words) (561 antibody): able to release 561 antibody prebound to KG1a or tHL60 cells
release activity on prebound 561 antibody (561 antibody; pH 6): did not show release activity

KDVYSLWPKD [Peptide 9079H, KD--VYSLWP--KD]
release of prebound 9079 antibody (anti-CD34 antibody 9079): at least 50%

KRHKRH [Peptide 561B, K R H K R H]
release activity on prebound 561 antibody (561 antibody; crude peptide, pH 7): did not show functional release activity
release activity on prebound 561 antibody (561 antibody; [3]): did not show functional release activity

LEQNKTSSKD [Peptide 34C, LEQNKTSS--KD]
release activity on prebound 561 antibody (561 antibody; crude peptide, pH 7): did not show functional release activity
release activity on prebound 561 antibody (561 antibody; [3]): did not show functional release activity

NDGYFDAMDY [Peptide 561CDR3H, N D G Y F D A M D Y]
release activity on prebound 561 antibody (561 antibody; crude peptide, pH 7): did not show functional release activity
release activity on prebound 561 antibody (561 antibody; [3]): did not show functional release activity

NLQGEFKD [Peptide 9079D, NLQGEF--KD]
release of prebound 9079 antibody (anti-CD34 antibody 9079): at least 50%

PELPTQGTFSNVSKE [Peptide 9069L, PELP--TQGTFS--NVSKE]
Competition % (anti-CD34 antibody, 9069): 91%

PGSPLGKD [Peptide 9079A, PGSPLG--KD]
release of prebound 9079 antibody (anti-CD34 antibody 9079): at least 50%

QKTDAYKD [Peptide 561P, Q K T D A Y--K D]
release activity on prebound 561 antibody (561 antibody; crude peptide, pH 7): none of these peptides showed release activity; also recorded: did not show release activity
release activity on prebound 561 antibody (561 antibody; [3]): showed functional release activity; also recorded: showed significant release activity
release of 561 antibody prebound to KG1a or tHL60 cells (in words) (561 antibody): able to release 561 antibody prebound to KG1a or tHL60 cells
release activity on prebound 561 antibody (561 antibody; pH 6): did not show release activity

QYTQPKD [Peptide 9079C, QYTQPK--D]
release of prebound 9079 antibody (anti-CD34 antibody 9079): at least 50%
release of prebound 9079 antibody (in words) (anti-CD34 antibody 9079; KG1a cells): tested positively

RHRHRH [Peptide 561A, R H R H R H]
release activity on prebound 561 antibody (561 antibody; crude peptide, pH 7): did not show functional release activity
release activity on prebound 561 antibody (561 antibody; [3]): did not show functional release activity

RTKTRF [Peptide 561C, R T K T R F]
release activity on prebound 561 antibody (561 antibody; [4]): functional activity as release reagents
release activity on prebound 561 antibody (561 antibody; [5]): only showed significant release activity in the FACS cell-based assay at pH 4 or pH 9
release activity on prebound 561 antibody (561 antibody; [6]): did not show release activity; also recorded: did not function as release reagents
release activity on prebound 561 antibody (561 antibody; crude peptide, pH 7): none of these peptides showed release activity
release activity on prebound 561 antibody (561 antibody; crude peptide, pH 7, listed as 561 C): did not show release activity
release activity on prebound 561 antibody (561 antibody; [3]): showed functional release activity
release activity on prebound 561 antibody (561 antibody; crude peptide, pH unadjusted (around pH 3.8-4.3; low pH ~4), listed as 561 C): showed significant release activity
release of 561 antibody prebound to KG1a or tHL60 cells (in words) (561 antibody): able to release 561 antibody prebound to KG1a cells
release activity on prebound 561 antibody (561 antibody; pH 6): did not show release activity

SFRVGYKD [Peptide 9079G, SFRVGY--KD]
release of prebound 9079 antibody (anti-CD34 antibody 9079): at least 50%

TRVPRR [Peptide 561D, T R V P R R]
release activity on prebound 561 antibody (561 antibody; [4]): functional activity as release reagents
release activity on prebound 561 antibody (561 antibody; [5]): only showed significant release activity in the FACS cell-based assay at pH 4 or pH 9
release activity on prebound 561 antibody (561 antibody; [6]): did not show release activity; also recorded: did not function as release reagents
release activity on prebound 561 antibody (561 antibody; crude peptide, pH 7): none of these peptides showed release activity; also recorded: did not show release activity
release activity on prebound 561 antibody (561 antibody; [3]): showed functional release activity; also recorded: showed significant release activity
release of 561 antibody prebound to KG1a or tHL60 cells (in words) (561 antibody): able to release 561 antibody prebound to KG1a cells
release activity on prebound 561 antibody (561 antibody; pH 6): did not show release activity
release activity on prebound 561 antibody (561 antibody; pH 9): Release activity also was observed

YSRLGFKD [Peptide 9079B, YSRLGF--KD]
release of prebound 9079 antibody (anti-CD34 antibody 9079): at least 50%
% Release (anti-CD34 antibody 9079; Table 19, % Release = 100 - % Binding): 55.0%
